Laboratory results from the supplement of paper PMC12217912.
Some of the results follow. Sequences were assembled here from the parent chain. Values near 0.05 are background.

B1: TEV protease; numbered along this chain (parent)
chain: MGESLFKGPRDYNPISSSICHLTNESDGHTTSLYGIGFGPFIITNKHLFRRNNGTLVVQSLHGVFKVKDTTTLQQHLVDGRDMIIIRMPKDFPPFPQKLKFREPQREERICLVTTNFQTKSMSSMVSDTSCTFPSGDGIFWKHWIQTKDGQCGSPLVSTRDGFIVGIHSASNFTNTNNYFTSVPKNFMELLTNQEAQQWVSGWRLNADSVLWGGHKVFMVKPEEPFQPVKEATQL

Variants of: B1
Assay: raw area under fraction-flipped curve 0-4 h after induction (AUC4h, not background-subtracted), DNA-recorder readout of cleavage of the substrate (dimensionless); higher = more cleavage of the substrate by the protease variant
Settings: temperature: 34 °C; time window: 0-4 h after rhamnose induction
Procedure: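 In vivo DNA recorder in E. coli TOP10(DE3) ΔrhaA at 34 °C. Each TEVp single-site mutant (parent TEVp 0) is paired with a single-site variant of the 7-mer TEVs (canonical ENLYFQ|S). The substrate sits between flexible linkers in a Bxb1-sfGFP-TEVs-SsrA fusion, so cleavage stabilises Bxb1 and speeds flipping of a recombination array, read by NGS. The value is the raw area under the fraction-flipped curve over 0-4 h after rhamnose induction (AUC4h), with ≥20 reads per time point. It is not background-subtracted; inactive controls average about 0.047.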
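Also: Bxb1 expression induced with 0.2% (w/v) L-rhamnose at OD600 near 0.5, cultures sampled hourly, flipped fraction per protease–substrate barcode pair counted by paired-end Illumina sequencing.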

Row | Variant | area with substrate ENAYFQS | area with substrate ENCYFQS | area with substrate ENGYFQS | area with substrate ENHYFQS | area with substrate ENKYFQS | area with substrate ENMYFQS | area with substrate ENPYFQS | area with substrate ENQYFQS | area with substrate ENRYFQS | area with substrate ENSYFQS | area with substrate ENTYFQS | area with substrate ENVYFQS | area with substrate ENDYFQS | area with substrate ENEYFQS | area with substrate ENFYFQS | area with substrate ENIYFQS | area with substrate ENNYFQS | area with substrate ENWYFQS | area with substrate ENYYFQS
1 | I164G | 0.0548 | 0.0607 | 0.0681 | 0.0618 | 0.0593 | 0.0579 | 0.0496 | 0.0603 | 0.0528 | 0.0399 | 0.0404 | 0.0624 | – | – | – | – | – | – | –
2 | I164Q | 0.0536 | 0.0603 | 0.0548 | 0.0612 | 0.0473 | 0.0429 | – | 0.0452 | 0.046 | 0.0502 | 0.0486 | – | 0.0613 | 0.0549 | 0.051 | 0.0361 | 0.0528 | 0.0166 | 0.0284
3 | V165P | 0.0644 | 0.0447 | – | – | 0.0793 | – | 0.0737 | 0.0498 | 0.0489 | 0.0514 | 0.0511 | 0.0278 | 0.0609 | 0.0498 | – | – | 0.0577 | – | –
4 | G166F | 0.0522 | 0.0488 | – | 0.0445 | – | – | 0.0498 | 0.0349 | – | 0.0551 | 0.0408 | 0.0577 | 0.0476 | 0.0586 | 0.0356 | 0.0503 | – | – | –
5 | G166W | 0.0444 | 0.0489 | 0.0553 | – | 0.0588 | – | – | – | 0.052 | 0.0445 | – | 0.074 | 0.0591 | – | 0.0637 | 0.0331 | 0.0684 | – | 0.0532
6 | I167R | 0.0364 | 0.0538 | 0.0608 | 0.058 | 0.0441 | – | 0.0398 | 0.0526 | 0.0384 | 0.0565 | 0.0485 | 0.0478 | – | 0.0512 | – | – | 0.0307 | 0 | 0.0296
7 | I167V | 0.0641 | – | 0.0434 | – | 0.042 | – | 0.0421 | 0.0631 | 0.0258 | 0.0516 | – | – | 0.0595 | 0.0523 | 0.0468 | – | – | – | –
8 | S169D | 0.0557 | – | 0.0728 | 0.0646 | – | 0.0381 | 0.0782 | 0.0564 | 0.0611 | 0.0488 | 0.0631 | 0.0572 | 0.0704 | 0.0568 | – | 0.057 | – | 0.0473 | 0.0417
9 | S169I | 0.051 | 0.0453 | – | – | 0.0515 | 0.0669 | 0.0692 | – | 0.0617 | 0.0434 | 0.0613 | 0.051 | 0.0592 | 0.065 | 0.0538 | 0.059 | 0.0532 | 0.0667 | 0.0262
10 | A170T | 0.0666 | – | – | – | 0.0725 | – | – | – | – | 0.0694 | – | – | 0.0685 | 0.055 | – | – | – | – | –
11 | S171C | 0.0708 | 0.0538 | – | 0.061 | – | 0.0765 | – | 0.061 | 0.0661 | 0.0592 | 0.0659 | 0.0564 | 0.0651 | 0.0572 | 0.0582 | – | 0.0742 | 0.0572 | –
12 | S171H | 0.0792 | 0.0736 | – | 0.0671 | – | 0.0733 | 0.0134 | 0.0638 | 0.0551 | 0.0663 | 0.0714 | 0.0418 | 0.0621 | 0.0629 | 0.0684 | 0.0631 | 0.0647 | – | –
13 | F173E | 0.0731 | 0.0602 | 0.0806 | – | – | – | – | 0.0625 | – | 0.0817 | – | 0.062 | 0.0821 | 0.0594 | – | 0.0893 | 0.063 | 0.0082 | –
14 | F173H | 0.055 | 0.0774 | 0.0662 | 0.0564 | 0.0723 | 0.0687 | 0.0453 | 0.0654 | 0.0653 | 0.0619 | 0.0689 | 0.0611 | 0.0672 | 0.0589 | 0.0653 | 0.0651 | 0.0617 | 0.055 | –
15 | N175G | 0.0635 | 0.0498 | 0.0642 | – | – | – | 0.0491 | 0.0493 | – | 0.0613 | 0.0596 | 0.0597 | 0.0655 | 0.0725 | – | 0.102 | – | – | 0.026
16 | N175L | 0.0631 | 0.0629 | 0.0629 | 0.0617 | – | 0.0582 | 0.0518 | 0.0608 | 0.06 | 0.0697 | 0.0649 | 0.0515 | 0.0716 | 0.0487 | – | – | 0.0663 | 0.0492 | –
17 | N177C | 0.0633 | 0.0532 | 0.0601 | 0.065 | – | – | – | 0.0649 | 0.0536 | 0.0623 | – | 0.103 | 0.06 | – | – | – | – | 0.0057 | –
18 | N177I | 0.0677 | 0.0848 | 0.063 | – | – | – | – | 0.0634 | 0.0755 | 0.0599 | 0.0645 | – | – | 0.0695 | 0.0715 | – | – | 0.0531 | –
19 | N177P | 0.0535 | 0.0693 | 0.0606 | 0.0596 | – | – | – | 0.0619 | 0.0601 | 0.0603 | 0.0679 | 0.0534 | 0.0641 | 0.05 | 0.0651 | 0.0556 | 0.0607 | 0.0581 | –
20 | N178A | 0.0638 | – | – | – | 0.0545 | – | – | – | 0.0458 | – | 0.0371 | – | – | 0.0581 | – | – | 0.0675 | 0.0708 | –
21 | Y179A | 0.0414 | – | 0.0647 | – | 0.078 | – | – | 0.0639 | 0.0475 | – | 0.0568 | 0.0652 | 0.059 | 0.0652 | 0.0535 | – | – | 0.0384 | –
22 | Y179R | 0.0759 | 0.0757 | – | – | 0.0569 | – | 0.0641 | 0.0562 | 0.0624 | – | – | 0.047 | 0.0359 | 0.0608 | 0.0869 | 0.0625 | 0.0723 | 0.0076 | –
23 | Y179S | 0.0782 | – | 0.0677 | – | 0.0561 | 0.0548 | – | 0.0584 | 0.0855 | 0.0252 | 0.0608 | 0.0403 | – | 0.0595 | 0.0616 | – | 0.0552 | – | 0.0628
24 | T181F | 0.0574 | 0.0505 | – | 0.0664 | – | 0.0596 | – | 0.0732 | 0.0113 | 0.027 | – | 0.0534 | 0.05 | 0.0644 | 0.0538 | – | 0.0575 | – | –
25 | S182R | 0.0562 | 0.0526 | – | – | 0.0513 | 0.0528 | – | 0.0552 | 0.0629 | 0.0582 | 0.0557 | – | 0.0699 | 0.0552 | 0.0307 | – | – | – | 0.0791
26 | V183A | 0.0603 | – | 0.0695 | 0.0598 | – | – | 0.0517 | 0.0662 | 0.0508 | 0.0576 | 0.0519 | 0.081 | 0.0588 | – | – | 0.123 | 0.0481 | 0.0377 | 0.0603
27 | V183P | 0.0552 | 0.0735 | 0.0596 | 0.0566 | 0.053 | 0.0666 | – | 0.0571 | – | 0.0516 | – | 0.017 | 0.0474 | 0.0585 | 0.0436 | – | 0.0624 | 0.0718 | 0.0573
